Results published in PubChem BioAssay (NCI).
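Briefly, cells in 96-well plates were exposed to five compound concentrations for 48 h, and endpoints were estimated by linear interpolation. Here, GI50 denotes the concentration required for 50% inhibition of growth. TGI marks complete inhibition of growth.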

Test system: NCI-H322M lung
Test: growth of human tumour cells (NCI), 48 h

Row | SMILES | GI50 [µM] | TGI [µM]
1 | Nc1nc(-c2ccccc2)c(N=Nc2ccc(Cl)cc2Cl)s1 | 5.57 | 19
2 | CC[C@]12C=CCN3CC[C@@]4(c5ccc(OC)cc5N(C)[C@H]4[C@@](O)(C(=O)OC)[C@@H]1OC(=O)CCCC[P+](c1ccc(C)cc1)(c1ccc(C)cc1)c1ccc(C)cc1)[C@@H]32 | 1.23 | 5.21
3 | CC(C)NC(=O)c1cc(-c2ccc(NC(=O)Nc3ccc(N4CCN(C)CC4)c(C(F)(F)F)c3)cc2)nc2cccnc12 | 2.12 | 4.68
4 | O=C(N/N=C/c1ccc(-c2ccc(O)cc2)o1)c1[nH]c2ccc(Br)cc2c1-c1ccccc1 | 2.51 | 21.9
